Assay results as given in the supplement of paper PMC3334620.
The full ranking holds about 33,000 sequences; the median of “E-score (-0.5 to 0.5)” is about -0.01, and the highest 2% start at about 0.26. Some of the results follow.

target: Ste12 (UniProt P13574); test: PBM E-score (8-mer binding enrichment) (E-score (-0.5 to 0.5)); higher = stronger / more preferred TF binding; most listed sequences are background and not binding sites; conditions: protein concentration: 200 nM; construct: GST-DNA-binding domain
How it was run: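 E-scores (a modified Wilcoxon-Mann-Whitney statistic) were assigned by the Universal PBM Analysis Suite to every ungapped eight-base word pooled with its reverse complement. The input came from universal all-10-mer Agilent arrays made double-stranded by primer extension and probed with GST-tagged yeast transcription factors at about 100-200 nM. Fluorescent anti-GST detected bound protein, and masliner normalised the scans.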

Sequence | PBM E-score
CAATATGA | 0.0995
CACCGCCG | -0.0467
GAGGCCCA | -0.00607
AGCCCCTA | -0.194
GTAGGAGA | -0.269
AAAGACAG | 0.116
CCCAGTAG | -0.0811
GGCATAAA | 0.26
ACAGTGAA | 0.0715
GACCTGAC | -0.00638
AGAGGGCG | -0.0365
CTCGAGAG | -0.113
GGATAACC | -0.166
AAGTTATC | 0.0496
CCTACTCA | 0.0472
CGTTTCCC | 0.165
AATGTACC | -0.164
TGAACTAA | 0.112
CCCATCTC | 0.0265
CTCCGTAA | -0.156
CGCGACAG | 0.0317
CGCACAGA | -0.0403
AAGCGGAG | -0.202
AGAAACGA | 0.207
ATGCCCCG | -0.102

Sequence | PBM E-score
ACATCCCC | 0.321
ACACGTTG | -0.3
TACCGCAA | -0.0223
CCTCTGAG | 0.0102
CCCCCAAA | -0.113
CATCCTGA | 0.0395
CCATGGTA | 0.033
ACGGTGAG | -0.0735
GAGATCGC | -0.106
AAATCCTG | 0.00572
CACCGTAC | 0.00821
GGATTTTA | 0.0949
CTACGTAG | -0.291
AAGCGTCT | -0.0972
CATGCTTA | -0.114
TCTAATCA | 0.0397
ATGTAAGC | 0.0956
AGGCCTTA | -0.202
TATTATCA | 0.188
CAATGACG | -0.19
GTAATCGA | -0.112
AGTGGCTA | -0.1
ACGAACAC | 0.063
TGGAAACA | 0.153
GAGATTCA | -0.0351

Sequence | PBM E-score
CCTAAAGA | -0.0117
CTCGTTTA | 0.0722
CGTTTCCA | 0.301
CCCTTGAC | -0.112
CAACTATG | 0.0343
CAGGACTA | -0.139
CGATTTCA | 0.00338
CGGCGTCA | 0.0737
CTTTTTAA | 0.104
CTCTGCAG | -0.164
AAGATCTT | -0.0528
AATAGACC | -0.171
GATGTCAC | 0.0506
ACCGTAAT | -0.0922
ATGAGAAC | 0.118
ATCATGAC | 0.131
ACAAGCGG | 0.106
ACTATCAA | 0.2
CCAGCCGA | -0.0203
CGGAACTC | -0.0357
AATGTCGC | 0.104
GGGTCGAC | -0.16
CTCCGGCA | 0.171
GACCCAAC | 0.0185
CCAAGGCA | -0.0268

Sequence | PBM E-score
ACCGTGTC | -0.123
ACACTTCC | -0.0741
AAGCTTTA | 0.0977
CAGCGTAC | -0.158
CTCCTTTC | 0.175
CGGGGTAC | 0.00433
CAGGTCGC | -0.142
ACTGTAGA | -0.0111
ATGGGTTC | -0.094
AGGGTATA | 0.089
TCAAATAA | 0.104
ATTTCTCA | 0.0701
CGTATAAA | 0.263
ATGTGATC | 0.0378
GCCTATCA | -0.207
ATATAGGA | -0.043
CCATCACC | -0.0108
GGTCGCAA | 0.149
GCGGGGGA | -0.143
ATCACTTG | 0.0286
AACAGAAG | -0.0718
GCGGGGCA | -0.101
CAGCTTTC | 0.029
CCGTGTAA | -0.046
CTACTCAA | 0.0762

Sequence | PBM E-score
AAGGCACC | 0.0536
ACTCAGTA | -0.0231
GACTCAGC | -0.116
CCACAAGC | -0.0374
CAACGCCG | -0.116
ACGTGTCA | 0.0322
ACAGTTCT | 0.0335
CGAGCAAG | -0.0663
TCTGCGAA | -0.166
GCGGTGAC | -0.095
TAAGGCCA | -0.248
CTACGCGC | 0.0872
GCGATTGA | -0.0222
AACTCCCT | -0.0624
CATTTATC | 0.0356
ACAAAACC | 0.171
GACAGATC | -0.103
ACTCAATG | -0.00127
ACGATTCT | -0.00452
GTTTTATA | 0.399
ACCTCGGG | -0.0521
GAGGGTAA | 0.0637
ACTCCGAG | 0.0847
CGCCGTAC | -0.0758
GCATCTAC | 0.0977

Sequence | PBM E-score
CTGCTCTC | 0.0432
GACGACCC | -0.0465
ACCAGAGC | 0.101
AATGGAAC | -0.0117
AAGAATAG | 0.132
AGTTGGTA | 0.0136
ACTTGGCG | 0.0439
GCGACCCC | 0.0725
CGAAAGCG | -0.181
AACTCAAG | -0.00801
AGGGCTCC | -0.236
ATCTCATG | -0.0609
CCTTGTCG | -0.173
GGGACATA | 0.0245
ACAATAGT | 0.127
AAGAATAA | 0.131
ACATCGGC | 0.0795
GCATTCAC | 0.0905
AACAGACG | -0.0377
AAACTTCG | -0.0281
GCAAAGAC | -0.0128
AATGCCAC | -0.0456
ACTTGGAA | -0.00351
ATCTGGCA | -0.0184
CCAGACGA | -0.141

Sequence | PBM E-score
ACGGCAAG | 0.0378
GTCGTATA | -0.0884
AAGGAGCT | -0.283
CTACATGC | -0.123
ACAGTGTG | 0.18
AGCGTGTA | -0.231
AATCTAGG | 0.0839
GTGGGTGA | 0.183
ACTGATGA | -0.053
GAAACCGA | 0.267
CCTCAATC | 0.0454
ACATAATA | 0.222
CCAAAAGG | -0.194
GTTGATCA | 0.00878
GAATAGAC | -0.0965
CCAGCAGA | -0.022
CTGCAAGC | -0.141
CATCGGAG | -0.2
CTGATCAA | -0.0287
GGCACGAA | 0.035
CGTCGTAC | -0.218
ACTGGAGC | -0.328
CGACAAAC | -0.0263
AATTCAGA | 0.0828
CAGATCTG | -0.14

Sequence | PBM E-score
AATTAAGT | 0.118
CTTGGCAA | -0.262
CAATGCTG | -0.0877
GGAGTACA | -0.211
CACGGGGG | 0.00781
TGACCTCA | -0.0719
CAAAAGCG | 0.14
GGAATTCA | 0.142
ACAAAACT | 0.125
CGCTCAAA | -0.0172
GATAATTA | 0.105
CACTGACG | -0.18
AAATAGGA | 0.174
AGAGGGTA | -0.185
AACTGCTG | -0.0958
CGCAGCCG | -0.0899
CCGTTCTC | 0.0324
AGCTACCG | -0.167
AGTGTACG | -0.0692
ATCCAATA | 0.0549
CCCAACCC | 0.136
CAGAACTA | 0.0297
ACGCCACT | -0.0403
TAAGCGGA | -0.0964
CGTTAGCC | -0.085

Sequence | PBM E-score
GCATCAGA | 0.0665
GTACCCTA | -0.0126
AACGTCTT | 0.0794
GTCTGCCA | -0.046
ACGAAACA | 0.327
ACTGGCCA | 0.0116
GTCTCCGA | 0.0356
AAATTAAA | 0.206
AATCTGCC | 0.0573
CGCTGACG | -0.188
TATGTGCA | -0.089
TATAAACA | 0.114
CGCTGCAA | 0.0221
AAGGCGCT | 0.0428
CAGTTTGA | 0.213
GCCGCTCC | -0.273
ACACCTGT | -0.049
GTCACAAA | 0.132
AATTCTCT | -0.111
CCCCGGAG | 0.0451
CGAAGGCG | -0.0132
GTGTCATA | 0.194
ATCTAACC | 0.0657
AGAGGACA | -0.205
CCCAACGG | 0.0468

Sequence | PBM E-score
ATCGCGAC | 0.0688
AGTTCGCA | -0.078
AACCGCAT | 0.00925
ACCCGTTC | 0.113
CCTGAGAG | -0.123
AAGCCACC | -0.236
CGAGCTAG | 0.0329
ATGACAAA | 0.136
AATTGGCT | -0.00062
CGTTTAAC | 0.057
ACTAAACT | 0.0724
CGAAGCGC | -0.0276
TACTCTCA | -0.00595
GATTGTGA | 0.0985
GACAGCTC | -0.0523
GTTGAGCA | -0.085
GAAAGGAC | -0.0888
ATAGTTAA | 0.0931
CCGAGCCC | -0.343
CGCCGGTC | -0.025
CCCTACCA | 0.0153
TGGTCTAA | 0.00287
CTACTGTA | 0.0549
AAAATTGA | 0.226
AGTTTGCC | 0.139

Sequence | PBM E-score
GCGGCAGA | -0.128
CGAAAGGC | 0.0466
GACAGGCC | -0.136
CAGTAACG | 0.0492
TACCTCGA | 0.0326
TCCCATAA | -0.00138
AACACAGT | 0.0143
GCAGAGGA | -0.162
GGGCTGGA | -0.0197
CGTTCAAG | -0.146
ACAGTGGC | -0.145
AGCCCCAC | -0.0574
AAACTCGC | 0.0875
AAGAGATC | -0.0503
CATCTACG | -0.0169
AGGTGCTC | -0.196
CCACTTAA | -0.0622
ACAGTTGC | -0.0387
ATTTACCA | 0.0862
CCGCTTCC | 0.102
CCCTGCAC | -0.098
GCATTAGA | -0.0431
GCGCCGAC | 0.00467
CTACGGAA | -0.17
AACTTGAC | 0.0624

Sequence | PBM E-score
TATGCCAA | -0.0467
CCGGTGAA | 0.00286
CGGAGCTA | -0.0707
AGGTGGCA | 0.00346
AGTGGAGC | -0.23
ATAAATCA | 0.138
AAAGCCTC | -0.0838
AGGGAGTC | -0.25
AAGGTCGT | 0.0159
GGATACCA | 0.00755
GATACCGA | -0.124
GAGAGTAC | -0.168
ATTTGGCA | 0.0883
GAGACTCA | -0.0789
CCACCGCC | 0.0871
CCGTAGCC | -0.159
ACTTACTG | 0.0461
CAATTGAC | -0.0478
CTCGAACA | 0.0163
ACCGACCG | 0.0445
AGTTCTAC | -0.141
CCATTGCA | 0.0632
AGGGGCTG | -0.0133
ATTTCTTC | 0.197
ACTCATGG | 0.0624

Sequence | PBM E-score
GCCTGTTA | 0.00489
AGATGAAG | 0.102
GGCAACCA | 0.00348
GCCGCCAC | -0.165
CTGCAAAG | -0.182
GGGGAGCA | -0.0606
AACCGGAG | -0.0395
ATGGTTAG | 0.0246
CTCCACAC | -0.0639
GCAAATCC | 0.0928
AGCATCCA | -0.0732
CGGTAATC | -0.00049
CTATCCTA | -0.0599
GGCTAGAC | -0.282
CGGCAACG | -0.198
CAGCTAAG | -0.282
CTGAAGTA | 0.00063
ACAACGTG | -0.123
CCAGTTAG | -0.183
CTGCCCAG | -0.235
CTGCTTAA | 0.0206
AAATACCC | 0.127
TATGGCAA | -0.0727
CCTATCTC | -0.0405
CTGGAGCA | -0.15

Sequence | PBM E-score
GACGGCTC | -0.225
AGCGACAA | -0.05
AAGGTTTG | 0.0426
CTTCTGCC | -0.122
GTTTGGCA | -0.161
AAGCTTGT | 0.0524
GCCGTCAA | -0.128
CGAGCTTA | -0.133
CCTGATCC | -0.121
AAGTTCGA | 0.0302
ATGGAGGC | 0.00738
CATACAGA | 0.0517
ATGCCTGC | 0.0448
CTACGTAA | -0.0603
CCAAGCTC | -0.0202
CACAATAA | 0.0136
CAGTATTC | -0.0651
TGTGCCAA | 0.0192
GCCAAACA | 0.00409
